Laboratory results: patent publication US20260274856A1, “COVALENT CEREBLON LIGANDS” (C4 THERAPEUTICS, INC., priority 2023, published 2026)

Molecular target: CRBN(delta 1-40)/DDB1(delta BPB) (Homo sapiens, UniProt Q96SW2)
Experiment: Covalent labeling of CRBN, intact protein mass spectrometry
Settings: 15 μM protein stock, 6 h at room temperature; for % modified (15 μM): 15 μM compound; for % modified (150 μM): 150 μM compound

SMILES | % modified (15 μM) | % modified (150 μM)
O=C1NC(=O)C2(c3ccc(OS(=O)(=O)F)cc3)CC1C2 [Compound A-37, 4-(2,4-dioxo-3-azabicyclo[3.1.1]heptan-1-yl)phenyl sulfurofluoridate] | + (<5% = +) | + (<5% = +)
O=C1CCC(Oc2ccc(C3CCNCC3)c(S(=O)(=O)F)c2)C(=O)N1 (stereo not drawn) [Compound A-38, 5-((2,6-dioxopiperidin-3-yl)oxy)-2-(piperidin-4-yl)benzenesulfonyl fluoride] | + (<5% = +) | + (<5% = +)
O=C1CCC(CNc2cccc(OS(=O)(=O)F)c2)C(=O)N1 (stereo not drawn) [Compound A-40, 3-(((2,6-dioxopiperidin-3-yl)methyl)amino)phenyl sulfurofluoridate] | + (<5% = +) | + (<5% = +)
O=C1CCC(Oc2ccc(C3CCNCC3)c(OS(=O)(=O)F)c2)C(=O)N1 (stereo not drawn) [Compound A-42, 5-((2,6-dioxopiperidin-3-yl)oxy)-2-(piperidin-4-yl)phenyl sulfurofluoridate] | ++++ (≥20% and <40%= ++++) | ++++++ (≥60% and <80% = ++++++)
O=C1CCN(c2ccc(C3CCNCC3)c(S(=O)(=O)F)c2)C(=O)N1 [Compound A-45, 5-(2,4-dioxotetrahydropyrimidin-1(2H)-yl)-2-(piperidin-4-yl)benzenesulfonyl fluoride] | ++++++ (≥60% and <80% = ++++++) | +++++++ (≥80% = +++++++)
O=C1NC(=O)C2(Nc3ccc(OS(=O)(=O)F)cc3)CC1C2 [Compound A-46, 4-((2,4-dioxo-3-azabicyclo[3.1.1]heptan-1-yl)amino)phenyl sulfurofluoridate] | + (<5% = +) | + (<5% = +)
O=C1CCC(NC(=O)c2cccc(OS(=O)(=O)F)c2)C(=O)N1 (stereo not drawn) [Compound A-47, 3-((2,6-dioxopiperidin-3-yl)carbamoyl)phenyl sulfurofluoridate] | + (<5% = +) | + (<5% = +)
O=C1CCC(NC(=O)c2cccc(S(=O)(=O)F)c2)C(=O)N1 (stereo not drawn) [Compound A-49, 3-((2,6-dioxopiperidin-3-yl)carbamoyl)benzenesulfonyl fluoride] | + (<5% = +) | ++++ (≥20% and <40%= ++++)
Cn1c(=O)n(C2CCC(=O)NC2=O)c2ccc(C3CCNCC3)c(OS(=O)(=O)F)c21 (stereo not drawn) [Compound A-53, 1-(2,6-dioxopiperidin-3-yl)-3-methyl-2-oxo-5-(piperidin-4-yl)-2,3-dihydro-1H-benzo[d]imidazol-4-yl sulfurofluoridate] | + (<5% = +) | + (<5% = +)
CN1C(=O)CCC(Nc2ccc(C3CCNCC3)c(OS(=O)(=O)F)c2)C1=O (stereo not drawn) [Compound A-55, 5-((1-methyl-2,6-dioxopiperidin-3-yl)amino)-2-(piperidin-4-yl)phenyl sulfurofluoridate] | + (<5% = +) | + (<5% = +)
O=C1CCC(c2noc3c(S(=O)(=O)F)cccc23)C(=O)N1 (stereo not drawn) [Compound A-58, 3-(2,6-dioxopiperidin-3-yl)benzo[d]isoxazole-7-sulfonyl fluoride] | +++++ (≥40% and <60% = +++++) | +++++++ (≥80% = +++++++)
O=C1CCC(c2ccc3ccc(S(=O)(=O)F)cc3c2)C(=O)N1 (stereo not drawn) [Compound A-60, 7-(2,6-dioxopiperidin-3-yl)naphthalene-2-sulfonyl fluoride] | ++++ (≥20% and <40%= ++++) | +++++++ (≥80% = +++++++)
CN(c1ccc(C2CCNCC2)c(OS(=O)(=O)F)c1)C1CCC(=O)NC1=O (stereo not drawn) [Compound A-61, 5-((2,6-dioxopiperidin-3-yl)(methyl)amino)-2-(piperidin-4-yl)phenyl sulfurofluoridate] | + (<5% = +) | ++ (≥5% and <10% = ++)
O=C1CCC(c2noc3c(OS(=O)(=O)F)cccc23)C(=O)N1 (stereo not drawn) [Compound A-62, 3-(2,6-dioxopiperidin-3-yl)benzo[d]isoxazol-7-yl sulfurofluoridate] | +++++++ (≥80% = +++++++) | +++++++ (≥80% = +++++++)
CC(C)N=S(=O)(F)c1ccc2c(c1)C(=O)N(C1CCC(=O)NC1=O)C2 (stereo not drawn) [Compound A-63, 3-[6-(S-fluoro-N-isopropyl-sulfonimidoyl)-1-oxo-isoindolin-2-yl]piperidine-2,6-dione] | + (<5% = +) | + (<5% = +)
NCCCCn1cc(COc2cc(S(=O)(=O)F)cc3c2CN(C2CCC(=O)NC2=O)C3=O)nn1 (stereo not drawn) [Compound A-64, 7-((1-(4-aminobutyl)-1H-1,2,3-triazol-4-yl)methoxy)-2-(2,6-dioxopiperidin-3-yl)-3-oxoisoindoline-5-sulfonyl fluoride] | + (<5% = +) | + (<5% = +)
NCCCCNC(=O)COc1cc(S(=O)(=O)F)cc2c1CN(C1CCC(=O)NC1=O)C2=O (stereo not drawn) [Compound A-65, 7-(2-((4-aminobutyl)amino)-2-oxoethoxy)-2-(2,6-dioxopiperidin-3-yl)-3-oxoisoindoline-5-sulfonyl fluoride] | + (<5% = +) | + (<5% = +)
O=C(O)COc1cc(S(=O)(=O)F)cc2c1CN(C1CCC(=O)NC1=O)C2=O (stereo not drawn) [Compound A-66, 2-((2-(2,6-dioxopiperidin-3-yl)-6-(fluorosulfonyl)-1-oxoisoindolin-4-yl)oxy)acetic acid] | + (<5% = +) | ++ (≥5% and <10% = ++)
